Some of the results follow. At the low end of the ranking the order means little. Measured with an extract: partners may take part in the binding.
target: T1, HNF4alpha2 (COS-7 nuclear extract) (UniProt P41235); test: protein-binding microarray; details: COS-7 nuclear extract on double-stranded Agilent 4x180k PBM; binding buffer, salt, pH and temperature not given; high values mean tight binding; double strand, one strand shown; sequences stand for … in …GCCTAGGGAGATTAGAGTATCGGTCGA
T1 sequence: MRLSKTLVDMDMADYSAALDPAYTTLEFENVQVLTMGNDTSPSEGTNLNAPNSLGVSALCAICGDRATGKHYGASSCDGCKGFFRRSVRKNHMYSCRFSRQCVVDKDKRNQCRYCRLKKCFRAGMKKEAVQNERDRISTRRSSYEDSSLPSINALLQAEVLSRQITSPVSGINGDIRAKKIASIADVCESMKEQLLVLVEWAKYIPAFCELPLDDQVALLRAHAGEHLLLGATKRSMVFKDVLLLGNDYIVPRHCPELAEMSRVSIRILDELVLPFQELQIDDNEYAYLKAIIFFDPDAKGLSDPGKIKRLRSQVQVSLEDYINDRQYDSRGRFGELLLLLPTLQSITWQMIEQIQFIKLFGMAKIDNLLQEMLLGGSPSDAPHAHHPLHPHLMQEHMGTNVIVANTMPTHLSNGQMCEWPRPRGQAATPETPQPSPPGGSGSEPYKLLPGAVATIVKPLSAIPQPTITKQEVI

| Sequence | binding signal (log2 normalized intensity) |
| --- | --- |
| GGAAGGTGCCAAGCATTCTAATCATTGAGG | -1.08 |
| CCCACTCTTAGCAGAGATTCCTGCTGAGTT | -1.15 |
| ATCCTTATCTTGTAGAAAAGTGCATGGATT | 0.836 |
| TTTGCTTAGTCTTATCTGAGGTGCCCTTAC | 2.67 |
| GGTCACAGTAACAGGGAGTCTGTTGCAAGC | -1.11 |
| ACCATCTCCTTTTGTGAGAGGTCAATGTCC | 6.22 |
| CTCCTGCCCTACTCCCTTAAATAATGCATA | 1.27 |
| CCAACTCCCCTCCCAAGGCAGCAATCCCCT | 4.97 |
| AACAGCAGCCACATTCCATGAGCTGGCCTC | -1.16 |
| GGGTCAGAGAAACCTGGCTGCGAGTCCCTG | -1.13 |
| CCCAGTCCAAATTCCCTTCCCCTCCTTAGG | 2.5 |
| GGTCAATAGTCCAGATACAGATGGCTAGAA | -1.11 |
| TCTCTAAGATAAGGATAATCTTCACTTGCC | -0.954 |
| GAATCACTCACTGACCTCTTTTGGATTTTT | 1.73 |
| GCTCTCCTCCTAATCACTGCCCTTTGGTGC | 2.83 |
| TTGGCCTATGGGAAAACAGGCTCAGCAAAG | -1.08 |
| GCTGCTTCCCAGTTGCTCTGGAGTGCAGGT | -0.82 |
| CCCTCAGTACAGGGCGTCCTTGATAAGCAA | -0.94 |
| GACAAAGGGCTCTCTCACCAGAAAAATGTA | -1.19 |
| TTAGTGTGCTCTGGGTCTGTCCTTTGTGTT | 2.67 |
| TTCCTCTCCTGCCCTACTCCCTTAAATAAT | 2.49 |
| ATATTTGCTCTTATTGATTGCCTTTCATGT | 1.47 |
| TCTGATGTCTGCTGAGAGATTCCTCTGCAC | -1.06 |
| TCTAACATTTTTGACCTTCAGCATCTTCAA | 2.85 |
| GGGTGATAAGAACACAAAAGCCTCTTCAGG | -1.24 |

| Sequence | binding signal (log2 normalized intensity) |
| --- | --- |
| CCCAGGGTTAGAGGATGACCTTCCCTGCAG | 1.33 |
| GGCTGTGCATATTGGTTTACAGCACTTCAT | 0.595 |
| TTTGTCAAATGCTTCCAAGAATTTAAGAGA | -0.179 |
| ATCACGTCTCTCTGGGGCCCTCTTCTGCAT | -0.843 |
| CCCTCCCCTCCCCCCACTCAAAATAGGAGT | 4.52 |
| TCTCATGCCCTTTGCCTCCCTGCATTCCAT | 3 |
| CAGCCCTGCTCCCCGCCTTGGCCTCCCGGA | 2.88 |
| CCAGGATCCAGTCCTCACCCAGAACTTTGA | 2.27 |
| GGGAGTAAAGGTCACGCAGGCCACCTGGTG | 3.36 |
| TGGATTGCCTCCTAAGGCCTCCAGAAGGAA | -1.11 |
| GCACAGTCAAAAATTTGTGTGTAACATTTG | 1.17 |
| AGATGATAGTGATAAGGATCTAAGAACTAA | -1.12 |
| TACGGACCATGGATCGCCAACCTTGGGTCT | -1.06 |
| TGCCTTTGATCAGGGACCTTTGTTCCTTTA | 4.43 |
| TTATCTTACATGCCTTATCTGGTTCAAAGG | 2.9 |
| ACCCCACGGACTTAAATTGTGCTGTGTCAG | 1.49 |
| TGGTTTTCCAATCTGGTGAAAGATGATGAG | 1.17 |
| ACCTAGGTAGTGGACTCTAAGGCAAAACAC | 1.38 |
| GCATTCCTGAAGCCTTCCTTAATCCTTCAG | -0.828 |
| TTGGCACTTCTCTCGGCCTTAAGAGTCAAA | -1.07 |
| TTCTTCCTGTTTGACCTTCGAACCCTTGCC | 9.01 |
| AATAAGAGCTTTGCATAAGCCAGACATTCT | -1.07 |
| TTTATTGTTGCTGATATAGAACACTTGTAC | 1.54 |
| ATGATCCTTGGCTGTGTGACTCACCTTTGC | 3.25 |
| ATGGATCATCACAATCACCTGTGAAGTGGT | -0.707 |

| Sequence | binding signal (log2 normalized intensity) |
| --- | --- |
| AGTTTTATGGCAGGGTCGGAATGTCTGGGC | 1.48 |
| AGGGACTTTGTCCCACAGGAGAAGTGATCC | 1.54 |
| ACATCTTGATTTAGCCCAGTGAGACCCATT | 1.38 |
| GCCACCCCCGTTAATTTCTAACCAATGCAG | 0.623 |
| ATGAAAAGTGGAATGCGCTTTCATGAGATG | -0.917 |
| TTGTCAAGTGCCCGGATAAACTTCCAGCCA | -1.12 |
| ACTGTAACCTTTGCCCCCCTGGGCTCAAGC | 5.81 |
| TAGCCTTTCATCTTCTTAGCCTTTGAACCC | 6.15 |
| TCAAGCACATTCCAGAACCAAGATTTACAT | -0.853 |
| ATCCAGCTGGGTATACTGACTAGGACAGAG | -0.958 |
| TTTTATTTAACTTCTGGGGGCAAGGTACAC | 4.22 |
| CTTCCCCCCTCCCTCCGCAACCTTTACTCC | 5.16 |
| TCCCTCATCTGTCATTCCCTCACTCTAGAA | -1.09 |
| CACTCCAGTGAGACAGAAGTAAAACAGGTA | -1.11 |
| GGACAATCATTGTGCAACCTGGACATTGGC | 2.08 |
| CATTGCAAGTCGTATACTATCTCAGGGCCT | 0.266 |
| TTGCCTTCCTGTTAGATAGAGGAGTCAAGC | -1.01 |
| CGAGAGCCGCCGCCGTGGGAGAGGCCGCCC | -1.03 |
| CTACATAACAAACATTACTAACTGGACTTT | 6.17 |
| CAAAGGACATTTCTAAAAATAGCCTTACTT | -0.901 |
| TGACCTCTTGGAAACATTTTACTCACCCCT | 2.82 |
| CTCTGGGAGATAAAGCAGAGGGCTGCTTGC | -1.15 |
| CTTGGTGAGAGATTAAACATGCTCTGCATA | -1.24 |
| AGAGCACTAAATCTCTCCTAGAGAAAGGGG | -1.09 |
| GTAGAAATTGTGGCTTGTGTAGTTATCCAG | 0.927 |

| Sequence | binding signal (log2 normalized intensity) |
| --- | --- |
| CTGAGGATCTAATGCACCCAGAACCCCCAG | 4.71 |
| TGGTAGCGTGTAGTAAAGCTCATGAAGCTT | -0.0448 |
| CTATCAGTCTGGGTCCAGTCAGGGAAATGG | 0.422 |
| GCAGAGTGGGAGGCCAAGAGATAAAAGAGA | -1.15 |
| GGGCTGTGAGAAACATCCTGCCTAACCACC | -1.19 |
| CCACAAGCCAAGGAGAGAGGCCTCTAGATA | -1.06 |
| GGTGGAGATGCCGTCGGCACACACGCATGG | -0.836 |
| GGGCATGGACTTTGGAATTAAGGAGATTTG | 4.96 |
| TATCTTTCCCTCCACTTCCTTTCTTTCCCT | 0.993 |
| ATGGCTACCAAGGAGTGGACTGTTCAAGAC | -0.242 |
| ACCTGGCCAAGTACAGCCTGTGCTAAGTTT | -0.802 |
| TAAGTGCACAGCCAGAACTGAGCCCTGGTT | -1.15 |
| AGCATTAATCCCTGAGCCTGGACCTTGGAA | 3.62 |
| GGTGGCCATCCATCCTGGCGACAGCAACTA | -1.12 |
| TCCAAAGGCCATCCACATTCTTTGGCTCAG | -1.12 |
| TTTGTCACCCAGGCTGAAGTCCAGTAGCTC | 0.869 |
| TGACAGCAAGATAATGTCAAAAATCTTAAG | -0.767 |
| GGTGGTGGGGGGTAGCCACTGACAGGAGGT | -1.2 |
| CCACAGAGTGACCTGGTATTGCAAGTATTT | 1.1 |
| AGAGGCTTTAGCAATAAATTCTGTTTTTTC | -0.965 |
| CAAGTTGAAGCCATCCTCCCACCTCAGCCT | 2.4 |
| AGCCGCAGAGCTAATGTTCAAATCCAGACA | -1.03 |
| TATTCAAACAGAGGACAGTTGTGTTTGTTG | 1.96 |
| AGTGCTTGTCAGTTTTGTTTTTGATCCCAA | 2.3 |
| TTGCATCAGCAGAGGACAGAAGAAGGAAAA | -1.12 |

| Sequence | binding signal (log2 normalized intensity) |
| --- | --- |
| CCCTCTTTAGGGTAGCCTGGGTTAAAGTCC | 5.5 |
| GTTCTGTTCCAGTTATGTTCTCTGTACGGA | 1.8 |
| GCCCTTTTTTTCTCTCCCCTTTTAATACAA | 1.84 |
| ATCAGAGCTGGATGTGAGTTATGACTACTT | -0.608 |
| CAGCACATGAAGGTCTCCTTGACTTCAAAG | -1.1 |
| CCTGGTGGCCATCAAGCAGATCATCCAGAG | -1.01 |
| TTCAGCTTCTCTTGTTTGTGTAACTGTGGG | 2.04 |
| TTGATATGTTAGTCTTGAGTCCCAAAGTCC | 3.43 |
| TGGTGTTTGATCTGATGTACCCAGCACTGT | 1.32 |
| TGTTTGAGTTCCAAAGTCCATGTTCATAAC | 5.11 |
| GAAAAGAATATCTCAGCAGCCTGGCTGCTC | -1.08 |
| CCTGGCCATTTCTCAGGTTGTGTTTGCAGT | 1.53 |
| GGGTGGGGTGCTGCCTTTCCTGTGACTTTT | 1.74 |
| ACCTGATGACAAAGGTGAGAGAGCATCCAG | -1.09 |
| TAAGCAGATCTTTAGAGACAGAAAATGCTT | -0.658 |
| TAAAGTTTATAGGCTAGAATGGAAACCAAT | -1.05 |
| TTCTTTGGGGCTTAGATAGCAGTGTGAGTG | 1.84 |
| GAAAGGAGGTCATGTACATGAAAGCAAGTT | 1.22 |
| GTCTAGGTGCCAGAATTGCTGCTCCCCCTC | 3.89 |
| TTCCAGCTCAATCAAGGACTGGGCTGGAAC | -1.07 |
| GTTTCTGTTTTGATCTTAAGATGATATAGC | 1.76 |
| TAGGTAAGAGACAAAGGTTGCATTCTTTTG | 1.43 |
| CACTGTTTGCCATAGATCCCACCATTCCCA | 1.4 |
| TATGGGAAGTGGGGTAAGCAAGGCTCTTAG | -0.461 |
| GGCTAAACCTAGCCCCCTTTCCCTTATCTT | 2.53 |

| Sequence | binding signal (log2 normalized intensity) |
| --- | --- |
| AAATTTGTTTACTTCTGTCTCCAGAAATCA | 0.729 |
| CCAGGTTCCAAAGGTCACCCGTATTCCTTA | 6.63 |
| AAGGTTCAGAGCCTGGCTGGCCTGGCAAAT | -0.816 |
| TTGTCAAGTTTGGTAAGCAGACCCCTACTG | 2.36 |
| GGATTCTGGGACCCACCCACCTATGTCCTT | 2.38 |
| ACATTCTTAGACAACACACCACCTGCTACT | -1.12 |
| GTGGGGGTCGGGGCACTGGTCCCCTGCACA | -0.762 |
| CCACTCTCATGGTCAATATTTTCTTTGTGC | 1.63 |
| CAGAAAGTGATGGGCTGGACTAAGAGTAGC | -1.11 |
| AAGGGAGAAATTGCGCTAACCAGATGGTAG | -1.08 |
| CATTAGACAGAAACCAAGCTGTCCGACTGC | -0.865 |
| ACCCTTTGAGTCCTTCATGGCTACCCTTCA | 0.859 |
| GTTGTGGAATGTGCTTGGACCTGCTCTGTT | 2 |
| GTTCCGTGTTCCAGAGCCTCCAAAGTCCGC | 2.22 |
| TGGTTTCTGTTTGAGGGGAAGAGAGTATGG | 1.37 |
| TATCTTCTTTCAGTGTTGACCTTTGAACAT | 8.83 |
| CTGGGGCCTCCTGGCTGGGCAGGCTCCCTC | -1.19 |
| CAATCCGCATCTTTTATAAGGGGCAGCAAA | -0.685 |
| GAGAAATCTAGGCTGATAAGACACATTCCA | -1.16 |
| TGACAGTGTGTACATAACAATGCAAGATAA | -1.03 |

— PMC10726135
